# “And” between values parts separate entries of the source, which are not always exact repeats. Equal entries are not always repeated. The shares of active, inactive and inconclusive entries below differ from those in the screen. A call without a number means that no potency is given here. For part of these data: Where the call is inconclusive, the potency comes from a doubtful curve fit. The source made the active and inactive calls. Calls follow the shape of the dose curve; as a rule, active = well fitted curve in the direction sought with a large enough effect in the repeat runs; inconclusive = weak or mixed curves; inactive = no such curve, though single readings can be large; an effect the other way counts as inactive or inconclusive.
# Columns and labels:
# [1] = qHTS RealTime-Glo MT Cell Viability Assay in HEK293 cells - 8 hour (AID 1224887); also: nearly all actives have a fitted effect of over 50% in size; also: potency is read from the fitted curve at half-maximal effect
# Method in brief: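 600 HEK293 cells per well, dispensed already mixed with RealTime-Glo MT reagents. Compound dosing came 5 h later. The same wells were read for luminescence at 0, 8, 16, 24, 32 and 40 h of exposure at 37 C.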
# [2] = qHTS RealTime-Glo MT Cell Viability Assay in HepG2 cells - 0 hour (AID 1224889); also: nearly all actives have a fitted effect of over 50% in size
# Method in brief: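 Tox21 10K library screened in qHTS format on HepG2 cells carrying RealTime-Glo reagents. Compounds were added after a 5 h preincubation, and the luminescent signal from continuous culture was measured repeatedly during 40 h treatment.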
# [3] = qHTS assay to identify small molecule antagonists of the androgen receptor (AR) signaling pathway using the MDA cell line in the presence of 0.5 nM R1881 - cell viability counter screen (AID 1259242); also: nearly all actives have a fitted effect of over 45% in size
# Method in brief: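 qHTS format. MDA-kb2 (MMTV-luc, AR/GR responsive) + cpd + 0.5 nM R1881 final, 16 hr 37C/0% CO2 → CellTiter-Fluor 30 min → fluorescence intensity.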
# [4] = target: Androgen receptor (Homo sapiens) (UniProt P10275); test: qHTS assay to identify small molecule antagonists of the androgen receptor (AR) signaling pathway using the MDA cell line in the presence of 0.5 nM R1881 (AID 1259243); also: nearly all actives have a fitted effect of over 50% in size; also: potency is read from the fitted curve at half-maximal effect
# Method in brief: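 Antagonist mode quantitative HTS in MDA-kb2 MMTV-luciferase cells, agonist R1881 at 0.5 nM final, 16 hr exposure at 37C and 0% CO2, luminescent detection.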
# [5] = target: Estrogen receptor (Homo sapiens) (UniProt P03372); test: qHTS assay to identify small molecule antagonists of the estrogen receptor alpha (ER-alpha) signaling pathway using the BG1 cell line in the presence of 0.1 nM 17-beta-estradiol (AID 1259244); also: potency is read from the fitted curve at half-maximal effect; nearly all actives have a fitted effect of over 50% in size
# Method in brief: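 Reporter is a stably transfected luciferase under four estrogen responsive elements in VM7Luc4E2 cells expressing native full-length ER-alpha; inhibition of 0.1 nM (final) 17beta-estradiol-driven signal over 22 h is read by luminescence.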
# Tags tell the direction and shape of the fitted curve.
# Chain of UniProt P10275 (P10275 whole entry, looked up): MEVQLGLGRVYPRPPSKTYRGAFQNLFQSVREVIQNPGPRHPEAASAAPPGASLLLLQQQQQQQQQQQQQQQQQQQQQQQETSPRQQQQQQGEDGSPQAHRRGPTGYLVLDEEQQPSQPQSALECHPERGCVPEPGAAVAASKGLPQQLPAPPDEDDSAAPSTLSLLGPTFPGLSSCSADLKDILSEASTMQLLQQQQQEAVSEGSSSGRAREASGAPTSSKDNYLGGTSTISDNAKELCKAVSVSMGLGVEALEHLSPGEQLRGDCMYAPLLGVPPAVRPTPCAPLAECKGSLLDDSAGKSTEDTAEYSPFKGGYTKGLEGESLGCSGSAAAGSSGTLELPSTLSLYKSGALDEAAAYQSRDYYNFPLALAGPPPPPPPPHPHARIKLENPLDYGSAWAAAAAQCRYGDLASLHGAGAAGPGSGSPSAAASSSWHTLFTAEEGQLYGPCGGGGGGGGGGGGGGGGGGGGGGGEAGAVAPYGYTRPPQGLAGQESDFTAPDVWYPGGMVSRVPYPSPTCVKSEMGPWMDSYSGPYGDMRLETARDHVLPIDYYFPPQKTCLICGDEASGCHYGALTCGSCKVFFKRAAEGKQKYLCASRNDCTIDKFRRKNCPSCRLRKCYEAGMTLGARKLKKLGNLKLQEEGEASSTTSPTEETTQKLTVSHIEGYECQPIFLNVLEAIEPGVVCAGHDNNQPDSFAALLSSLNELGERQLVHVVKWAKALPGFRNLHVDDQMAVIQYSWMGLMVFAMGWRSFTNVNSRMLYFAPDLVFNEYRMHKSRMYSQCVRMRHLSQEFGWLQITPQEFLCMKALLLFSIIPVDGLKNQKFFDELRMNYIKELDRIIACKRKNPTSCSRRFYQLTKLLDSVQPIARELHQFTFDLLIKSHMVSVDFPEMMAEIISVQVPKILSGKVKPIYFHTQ
# Chain of UniProt P03372 (P03372 whole entry, looked up): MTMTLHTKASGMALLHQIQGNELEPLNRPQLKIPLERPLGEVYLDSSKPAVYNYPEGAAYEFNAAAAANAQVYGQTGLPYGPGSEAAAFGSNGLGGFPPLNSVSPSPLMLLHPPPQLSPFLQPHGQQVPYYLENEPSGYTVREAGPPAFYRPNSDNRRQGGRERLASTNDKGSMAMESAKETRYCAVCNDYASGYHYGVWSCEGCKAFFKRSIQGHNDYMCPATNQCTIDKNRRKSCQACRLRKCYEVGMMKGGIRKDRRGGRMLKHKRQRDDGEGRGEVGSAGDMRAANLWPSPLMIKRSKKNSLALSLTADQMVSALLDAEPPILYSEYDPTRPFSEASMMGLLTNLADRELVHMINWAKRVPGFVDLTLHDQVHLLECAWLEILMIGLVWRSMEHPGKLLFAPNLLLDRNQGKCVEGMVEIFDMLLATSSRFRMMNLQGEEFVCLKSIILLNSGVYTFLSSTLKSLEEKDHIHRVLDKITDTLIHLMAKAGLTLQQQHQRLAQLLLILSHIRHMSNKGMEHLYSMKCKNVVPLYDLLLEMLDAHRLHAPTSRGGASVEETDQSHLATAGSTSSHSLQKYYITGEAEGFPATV
compound,measurement,setting,value
O=S(=O)(O)c1ccc2ccccc2c1,Potency,[1],inactive
COc1ccccc1[N+](=O)[O-],Potency,[1],inactive
same,Potency,[2],inactive
same,Potency,[3],inactive
CC(=O)N(CC(=O)N(C)C)c1ccccc1,Potency,[1],inactive
CCCC(C)CO (configuration not stated),Potency,[1],inactive
same,Potency,[4],inactive
C=C(C)C(=O)Nc1ccc(Cl)c(Cl)c1,Potency,[1],"inconclusive: 22.1 µM [cytotoxic, partial curve] and inconclusive: 21.8 µM [cytotoxic, partial curve]"
same,Potency,[5],inconclusive: 54.3 µM [inhibitor]
COC(=O)Nc1ccc(Cl)c(Cl)c1,Potency,[1],"inconclusive: 61.4 µM [cytotoxic, single point]"
CCn1c2ccccc2c2ccccc21,Potency,[1],"inconclusive: 54.9 µM [cytotoxic, single point]"
same,Potency,[4],"inconclusive: 54.5 µM [inhibitor, partial curve]"
